Assay results reported in the RNAGym collection of RNA variant scans (doi:10.1093/nar/gkz1192).
Read counts are not given, so values of variants with three or more changes are uncertain.

B1: CPEB3 Ribozyme (parent)
chain: UAACAGGGGGCCACAGCAGAAGCGUUCACGUCGCAGCCCCUGUCAGAUUCUGGUGAAUCUGCGAAUUCUGCUGUAUAUCUC

Variants of: B1
Assay: self-cleavage, relative activity (ratio to wild type); higher = more cleavage; in vitro, sequencing
Outline: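 CPEB3 self-cleaving ribozyme mutant libraries were made by rounds of error-prone PCR, barcoded, and transcribed in vitro with T7 RNA polymerase for 5 hours at 37°C. Cleavage occurred during transcription and a 15 min DNase I step before EDTA stop. RNAs were reverse transcribed with template switching and Illumina-sequenced, with DNA sequencing mapping barcodes to variants. Relative activity is the variant's cleaved/total read fraction divided by wild type's (minimum 5 reads), averaged across three batches.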
UAACAUGGGGCCACAGCAGAAGCGUUCACGUCGCAGCCCCUGUCAGAUUCAGGUGAAUCUGCGAGUUCUGCUGUAUAUCUC gave a self-cleavage of 0.15.
Work on UAACAUGGGGCCACAGCAGAAGCGUUCACGUCGCAGCCCCUGUCAGAUUCAGGUGAAUCUGCGAACUCUGCUGUAUAUCUC yielded a self-cleavage of 0.08.
UAACAUGGGGCCACAGCAGAAGCGUUCACGUCGCAGCCCCUGUCAGAUUCCGGUGAAUCUGCGACUUCUGCCGUAUCUCUC gave a self-cleavage of 0.13.
UAACAUGGGGCCACAGCAGAAGCGUUCACGUCGCAGCCCCUGUCAGAUUCCGGUGAAUCCGCGGACUCUGCUGUAUAUCUC gave a self-cleavage of 0.05.
Variant UAACAUGGGGCCACAGCAGAAGCGUUCACGUCGCAGCCCCUGUCAGAUUCUGGCGAAUCUGCGAAUUCUGCUGUAUAACUC has a self-cleavage of 0.42.
UAACAUGGGGCCACAGCAGAAGCGUUCACGUCGCAGCCCCUGUCAGAUUCUGGUGAAUCCGCGAAUUCUGCUGCAUAUCUC gave a self-cleavage of 0.22.
With UAACAGAGGGCCCCAGCAGAAGCGUUCACGCCGCAGCCCCUGUCAGUUUCUGGUGAGUCUGCGAAUUCCGCUGUAUAUCCC the self-cleavage was 0.05.
Work on UAACAGAGGGCCGCAGCAGAAGCGUUCACGUCGCGGCCCCUAUCAGAUUCUGGCGAAUCUGCGAAUUCUGCUGUAUAUCUC yielded a self-cleavage of 0.08.
UAACAGAGGGCCGCAGCAGAAGCGUUCACGUCGCGGCCCCUGUCAGAUUCUGGUGAAUCUGCGAAUCCUGCUGUAUAUCUC gave a self-cleavage of 0.31.
UAACAGAGGGCCGCAGCAGAAGCGUUCACGUCGCAGCCCCUGUCAGCUUCUGGUGAAUCUGCGAAUUCUGCUGUAUAUCUC gave a self-cleavage of 0.05.
UAACAGAGGGCCGCAGCAGAAGCGUUCACGUCGCAGCCCCUGUCAGGUUCUGGUGAAUCUGCGAACUCUGCUGUAUAUCAC gave a self-cleavage of 0.2.
Work on UAACAGAGGGCCGCAGCAGAAGCGUUCACGUCGCAGCCCCUCUCAGAUUCUGGUGAAUCUGCGAAUCCUGCUGUAUAUCUC yielded a self-cleavage of 0.06.
Variant UAACAGAGGGCCGCAGCAGAAGCGUACACGACGCAGCCCCUGUCAGACUCUGGUGAAUCUGCGAACUCUGCUGUAUAUCUC has a self-cleavage of 0.04.
With UAACAGAGGGCCGCAGCAGAAGCGUUCACGUCGCAGCCCCUGUCAGACUCUGGUGAAUCUGCGAAUUCUGCUGUAUAUCUC the self-cleavage was 0.24.
Work on UAACAGAGGGCCUCGGCAGAAGCGCUCACGUCGCAGCCCCUGUCAGAUUCUGGUGAGUCUGCGAAUUCUGCUGUAUACCUC yielded a self-cleavage of 0.18.
Variant UAACAGAGGGCCUCAGCUGAAGCGCCCACGUCGCAGCCCCCGUCAGAUUCUGGUGAAUCUGCGAAUUCUGCUGUAUAUCCC has a self-cleavage of 0.17.
In the case of UAACAGAGGGCCUCAGCAGAAGCGUUCGCGUUGCAGCCCCUGUCAGAUUCUGGUGAAUCUGCGAAUUCUGCUGUAUACCCC, the self-cleavage is reported as 0.06.
For UAACAGAGGGCCUCAGCAGAAGCGUUCACGUCGCAGCCCCUGUCAGAUUCUGGUGAGUCUGCGAAUUCUGCUGUAUAUCUC, the self-cleavage was 0.18.
With UAACAGAGGGCCUCAGCAGAAGCGUUCACGUCGCAGCCCCUGUCAGAUUCUGGUGAGUCUGCGAAUUCUGCUGUAUAUCAC the self-cleavage was 0.06.
UAACAGAGGGCCUCAGCAGAAGCGCUCAUGUCGCAGCCCCCGUCAGAUUCUGGUGAAACUGCGAAUUCUGCUGUAUAUCUC showed a self-cleavage of 0.06.
Variant UAACAGAGGGCCUCAGCAGAAGCGUACACGUCGCAGCCCCUGUCAGAUCCUGAUGAAUCUGUGAAUUCUACUGUAUAUCUC has a self-cleavage of 0.03.
In the case of UAACAGAGGGCCUCAGCAGAAGCGUUCACGUCGCAGCCCCUGUCAGAUCCUGGUGAAUCUGCGAACUCUGCUGUACAUCUC, the self-cleavage is reported as 0.14.
Variant UAACAGAGGGCCACCGCAGAGGCGUUCACGUCGCAGCCCCUGCCAGAUCCUGGUGAAUCUGCGAAUUCUGCUGUAUAUCCC has a self-cleavage of 0.21.
UAACAGAGGGCCACCGCAGAAGCGUUCACGUCGCGGCCCCUGUCAGAUUCUGGUGAAUCUGCGGAUCCUGCUGUAUAUCCC gave a self-cleavage of 0.04.
UAACAGAGGGCCACGGCAGGAGCGUACACGUCGCUGCCCCUGUCAGAUUCUGGUGAAUCUGCGAAUUCUGCUGUAUAUCUC showed a self-cleavage of 0.04.
In the case of UAACAGAGGGCCACGGCAGAGGCGUCCACGUCGCAGCCCCUGUCAGAUUCUGGUGAAUCUGCGAAUUCUGCAGUAUAUCUC, the self-cleavage is reported as 0.06.
For UAACAGAGGGCCACGGCAGAAGCGUUCACGUCGCAGCCCCUGUCAGAUUCUGGUGAAUCUGCGAGUUCUGCUGUAUAUCUC, the self-cleavage was 0.24.
Variant UAACAGAGGGCCACGGCAGAAGCGCUCACGUCGCAGCCCCUGCCAGAUUCUGGUGAGUCUGCGAAUUCUGCUGUAUACCUC has a self-cleavage of 0.04.
UAACAGAGGGCCACGGCAGAAGCGUUCACGUCGCAGCCCCUGUCAGAUUCUGGUGAAUCUGCGAAUCCUGCUGCAUAUCUC gave a self-cleavage of 0.19.
UAACAGAGGGCCACGGCAGAAGCGUUCACGUCGCAGCCCCUGUCAGAUUCUGGUGAAUCUGCGAAUUCCGCUGUAUAUCUC showed a self-cleavage of 0.22.
Work on UAACAGAGGGCCACUGCGGAAGCGUUCACGUCGCAGCCCUUGUCAGAUUCCGGUGAGUCCGCGAAUUCUGCUGUAUAUCUC yielded a self-cleavage of 0.03.
In the case of UAACAGAGGGCCACUGCAGAAGCGUUCUCGUCGCAGCCCCUGUCAGAUUCAGGUGAAUCUGCGAUUUCUGCUGUAUAUCUC, the self-cleavage is reported as 0.29.
In the case of UAACAGAGGGCCACUGCAGAAGCGUUCACGUCGCGGCCCGUGUCAGAUUCUGGUGAAUCCGUGAAUUCUGCUGUAUAUCUC, the self-cleavage is reported as 0.05.
Variant UAACAGAGGGCCACUGCAGAAGAGUACACGUCGCAGCCCCUGUCAGAUUCUGGCGAAUCUGCGAAUUCUGCUGUAUACCUC has a self-cleavage of 0.03.
